Laboratory results reported in PubChem BioAssay AID887 (National Center for Advancing Translational Sciences (NCATS), 2007).
Where “and” joins values, the source holds several entries; their conditions need not be identical. Equal values may be shown once. The whole screen tested about 74,000 compounds, of which about 1,100 (1.5%) were called active. Inconclusive results, whose numbers are uncertain, are shown with a selection of clear calls. Calls follow the shape of the dose curve; as a rule, active = well fitted inhibition curve with a large enough effect; inconclusive = small, poorly fitted or top-dose-only effect; inactive = no such curve, though single readings can be large or run the other way. No potency is given beside an inconclusive call; the fits are too rough. The source holds several records for some structures; these can differ, active in one and inactive in another.

biological target: Polyunsaturated fatty acid lipoxygenase ALOX15 (Homo sapiens) (UniProt P16050); assay: qHTS Assay for Inhibitors of 15-hLO (15-human lipoxygenase); conditions: purified 15hLO-1, xylenol orange hydroperoxide absorbance; activity change, negative = inhibition: at 57.1 µM (top of the series) unless noted; also: nearly all actives have a fitted effect of over 55% in size
UniProt P16050, sequence (P16050 whole entry, looked up): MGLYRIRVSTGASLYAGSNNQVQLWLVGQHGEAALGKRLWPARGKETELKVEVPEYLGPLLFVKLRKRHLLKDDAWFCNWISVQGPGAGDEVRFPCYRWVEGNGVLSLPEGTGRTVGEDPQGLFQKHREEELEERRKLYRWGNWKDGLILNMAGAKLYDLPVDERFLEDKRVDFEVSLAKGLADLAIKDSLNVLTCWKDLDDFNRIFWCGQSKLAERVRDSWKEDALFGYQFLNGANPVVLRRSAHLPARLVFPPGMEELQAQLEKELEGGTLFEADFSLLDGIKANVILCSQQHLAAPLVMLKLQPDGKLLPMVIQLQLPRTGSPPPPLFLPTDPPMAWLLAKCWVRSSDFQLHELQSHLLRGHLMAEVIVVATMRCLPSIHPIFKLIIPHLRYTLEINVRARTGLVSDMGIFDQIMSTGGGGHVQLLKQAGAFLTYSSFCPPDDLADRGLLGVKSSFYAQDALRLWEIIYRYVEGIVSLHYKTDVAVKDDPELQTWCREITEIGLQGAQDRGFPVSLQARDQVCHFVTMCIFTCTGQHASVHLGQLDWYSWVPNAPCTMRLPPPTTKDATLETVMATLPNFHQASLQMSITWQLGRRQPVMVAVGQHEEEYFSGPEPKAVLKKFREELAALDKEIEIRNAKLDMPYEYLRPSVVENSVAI
Text: Assay Overview: NIH Molecular Libraries Screening Centers Network [MLSCN] NIH Chemical Genomics Center [NCGC] MLSCN Grant: MH081283-01A1 PI Name: Holman, T.R., University of California, Santa Cruz Human lipoxygenase 15hLO-1 is a member of the closely related lipoxygenase family of enzymes which catalyze the site-specific oxidation of arachidonic acid to various hormone precursor molecules and as such is a candidate for drug development in a variety of disease areas, such as cancer and inflammation. Inhibition of 15hLO-1 activity was screened by utilizing arachidonic acid as a substrate. The extent of hydroperoxide product formation was measured by a secondary chromogenic reaction in which xylenol orange (XO, Sigma-Aldrich, cat. number 39,818-7) reacts with the ferric ions produced from the reaction between the hydroperoxide and ferrous ions. The Fe(III)-XO complex is characterized with red-shifted absorbance at 560 nm. A purified preparation of human 15hLO-1 was supplied by Professor Ted Holman, University of California, Santa Cruz.
Assay Protocol: Buffer: 25 mM Hepes pH 7.5, 0.01% Triton X-100. Reagents/Controls: Buffer in columns 3 and 4 as negative control (no enzyme). Substrate solution: 50 uM arachidonic acid (Sigma-Aldrich, St. Louis, MO) final concentration dispensed throughout the plate. Enzyme: 40 nM 15hLO-1 final concentration in columns 1, 2, 5-48. Column 1 is neutral (100% activity). Column 2 contained pin-transferred titration of NDGA (nordihidroguaiaretic acid, Sigma-Aldrich, N 5023, top concentration 10 mM in DMSO, then 1:2 dilution in duplicate). (Dilution factor: 23 nL into 4 uL.) Chromogenic detection reagent (divalent iron/xylenol orange, Fe-XO): 200 uM xylenol orange plus 300 uM ferrous ammonium sulfate prepared freshly in 50 mM sulfuric acid. Assay Steps: Three uL of enzyme were dispensed to 1536-well Greiner black clear bottom plates. Compounds and controls (23 nL) were transferred via Kalypsys PinTool. The plates were incubated for 15 min at room temperature, and then 1 uL of substrate solution was added to start the reaction. After room temperature incubation for 6 minutes, 4 uL of Fe-XO solution was added to each well followed by a short spin (1000 rpm, 15 sec) and the plates were then incubated for 30 min. The absorbance at 405 and 573 nm were measured using ViewLux (Perkin-Elmer) High-throughput CCD imager and absorbance protocol settings. The 573-to-405 absorbance ratio was used to compute reaction progress.
% is scaled to controls: 0 for no effect and ±100 for the full control effect; potency is read from the fitted curve at half-maximal effect; tags tell the direction and shape of the fitted curve.

Structure (SMILES)	activity change, negative = inhibition	Potency
CC(=O)CCC(C)=O	inactive: 1.64%	
O=c1c(O)c(-c2ccc(O)c(O)c2)oc2c(O)c(O)cc(O)c12		inconclusive [inhibitor, partial curve]
O=C(Cn1ncc2ccccc21)N1CCC2(CC1)OCCO2	inactive: 7.28%	
COc1ccc2c(c1)CCC1[C@@H]2CCC2(C)[C@@H](NCCCCCCN3C(=O)C=CC3=O)CC[C@@H]12 (stereo partly drawn)		active: 12.6 µM
CC[n+]1c(-c2ccccc2)c2cc(N)ccc2c2ccc(N)cc21		active: 10 µM
COc1cc2c(cc1OC)[C@@H]1C(=O)c3ccc(OC)c(CC=C(C)C)c3OC1CO2 (stereo partly drawn)		active: 15.8 µM
COc1ccc(C2C(C(=O)N3CCC4(CC3)OCCO4)c3cc(OC)c(OC)cc3C(=O)N2C)cc1 (stereo not drawn)		inconclusive [inhibitor, full curve, poor fit]
O=C1C=Cc2ccccc2C1=O		inconclusive [inhibitor, partial curve]
CN(C)[C@@H]1C(=O)C(C(N)=O)=C(O)[C@]2(O)C(=O)C3=C(O)c4c(O)cccc4[C@](C)(O)[C@H]3C[C@@H]12		inconclusive [inhibitor, partial curve]
Cc1cc(O)c2c(c1)C(=O)c1cc(O)cc(O)c1C2=O		inconclusive [inhibitor, partial curve]
NC(Cc1ccc(N(CCCl)CCCl)cc1)C(=O)O (stereo not drawn)		inconclusive [inhibitor, single point]
C[N+]1(C)[C@@H]2CC[C@H]1CC(OC(=O)c1c[nH]c3ccccc13)C2 (stereo partly drawn)		active: 15.8 µM
CC(C)C(=O)Nc1ccc([N+](=O)[O-])c(C(F)(F)F)c1		inconclusive [inhibitor, single point]
CCOC(=O)Nc1ccc(NCc2ccc(F)cc2)nc1N		inconclusive [inhibitor, single point]
O=C1CC(N(O)c2ccccc2)C(=O)N1Cc1ccccc1 (stereo not drawn)		inconclusive [inhibitor, partial curve]
CN1[C@@H]2CC[C@H]1CC(OC(=O)N1Cc3ccccc3NC1=O)C2 (stereo partly drawn)		inconclusive [inhibitor, partial curve]
Cc1nc2cc(-c3cccc(F)c3)nn2c(C)c1CCC(=O)N1CCC2(CC1)OCCO2	inactive: -2.03%	
COC(=O)[C@@H]1c2cc3c(c(O)c2[C@@H](O)C[C@]1(C)O)C(=O)c1c(O)cc2c(c1C3=O)O[C@H]1O[C@@]2(C)[C@@H](O)[C@H](N(C)C)[C@H]1O		inconclusive [inhibitor, partial curve]
CN1CCN(c2ccc(NC(=O)C(C)(C)C)cc2)CC1	inactive: 6.37%	
[Cl][In]([Cl])[Cl]		inconclusive [inhibitor, partial curve]
CC[N+](CC)(CC)CCOc1cccc(OCC[N+](CC)(CC)CC)c1OCC[N+](CC)(CC)CC		inconclusive [inhibitor, partial curve]
CCCn1c(C)c(C(=O)c2ccc3ccccc3c2)c2ccccc21		inconclusive [inhibitor, single point]
Nc1ccc(-c2ccc(N)c(O)c2)cc1O		inconclusive [inhibitor, full curve]

Structure (SMILES)	activity change, negative = inhibition	Potency
c1ccc(CCCN2CCN(CCOC(c3ccccc3)c3ccccc3)CC2)cc1		active: 25.1 µM
CCC(=NCCN1CCOCC1)c1c(O)n(-c2ccccc2C)c(=O)[nH]c1=O		inconclusive [inhibitor, partial curve]
O=C(OC1Cc2c(O)cc(O)cc2OC1c1cc(O)c(O)c(O)c1)c1cc(O)c(O)c(O)c1 (stereo not drawn)		inconclusive [inhibitor, full curve]
COC(=O)c1c(C)n(Cc2ccc3c(c2)OCO3)c2ccc(O)cc12		inconclusive [inhibitor, single point]
CCC(=O)OC1CCC2C3CCc4cc(O)ccc4C3CC[C@]12C (stereo partly drawn)		inconclusive [inhibitor, partial curve]
C[Se]C[C@@H](N)C(=O)O		inconclusive [inhibitor, full curve]
CCCCCCCCC(=O)NCc1ccc(O)c(OC)c1		active: 25.1 µM
COc1cc(C)c(CN2CCN(c3ccccc3)CC2)cc1C		inconclusive [inhibitor, partial curve]
C[C@@]12CCC3C(CCC4=CC(=O)CC[C@]43C)C1CCC2O (stereo partly drawn)	inactive: -10.4%	
O=C(O)CN1CCN(CC(=O)O)CC(=O)[O][Hg][O]C(=O)C1		active: 0.158 µM
C=C1[C@@H](O)C2C=CC[C@H](C)C(=O)[C@@](C)(O)C=C[C@@H](OC(C)=O)[C@@]23C(=O)N[C@H](Cc2ccccc2)[C@@H]3[C@@H]1C (stereo partly drawn)		inconclusive [inhibitor, partial curve, poor fit]
O=C(CN1CC=C(c2ccccc2)CC1)NC(=O)NCc1ccco1		inconclusive [inhibitor, partial curve]
O=c1cccc2n1CC1CC2CN(Cc2cccc(Cl)c2Cl)C1 (stereo not drawn)		inconclusive [inhibitor, partial curve]
CCCC/C=C/[C@@H](NP(=O)(c1ccccc1)c1ccccc1)c1ccccc1OC	inactive: -0.329%	
O=S1(=O)N(CCN2CC=C(c3c[nH]c4cc(F)ccc34)CC2)c2cccc3c2N1CCC3		inconclusive [inhibitor, partial curve]
c1ccc2c(c1)[nH]c1cnccc12	inactive: -3.28%	
O=C(CCCN1CCC2(CC1)C(=O)N(Cc1cccc(F)c1)CN2c1ccccc1)c1ccc(F)cc1		inconclusive [inhibitor, single point]
Cc1ccc(O)c(CN2CCN(c3ccccc3)CC2)c1		inconclusive [inhibitor, single point]
CNCC/C=C\c1cccnc1		inconclusive [inhibitor, single point]
CC1=CC(C)C(COC(N)=O)(COC(N)=O)C(C)C1 (stereo not drawn)		inconclusive [inhibitor, partial curve, poor fit]
CC1=C2C(=O)[C@@H]3[C@@H](CC=C4C[C@@H](O)CC[C@@]43C)[C@H]2CC[C@@]12O[C@H]1C[C@H](C)CN[C@H]1[C@@H]2C	inactive: -0.486% [at 11.4 µM]	
C[C@@H](Cc1ccc(Cl)cc1Cl)NO		inconclusive [inhibitor, single point]
CC(C)CCCC(C)C1CCC2C3=CC[C@@H]4CC(O)CC[C@@]4(C)C3CC[C@]21C (stereo partly drawn)		inconclusive [inhibitor, full curve]

Structure (SMILES)	activity change, negative = inhibition	Potency
CC(C)(OO)c1ccccc1		active: 0.126 µM
CC(=O)[O][Hg][c]1ccccc1		active: 0.0126 µM
Cc1cc2c(C(C)C)c(O)c(O)c(C=O)c2c(O)c1-c1c(C)cc2c(C(C)C)c(O)c(O)c(C=O)c2c1O		inconclusive [inhibitor, partial curve]
CN1CCN(C(=O)COc2ccc(C(C)(C)C)cc2Br)CC1		inconclusive [inhibitor, partial curve]
CCCCC/C=C\C/C=C\C/C=C\C/C=C\CCCC(=O)O		active: 79.4 nM and active: 316 nM
CCCCCCCCn1sccc1=O		inconclusive [inhibitor, partial curve]
COC(=O)[C@]1(C)C[C@H]1[C@H](NP(=O)(c1ccccc1)c1ccccc1)c1ccccc1	inactive: 4.08%	
CCCCOc1ccc(CC2C(=O)N(C)C(=O)N(C)C2=O)cc1		inconclusive [inhibitor, single point]
O=C(OCC#CCSc1nnc(-c2ccccc2)o1)c1ccco1		active: 25.1 µM
CC(C)OCCCNC(=O)c1c(N)n(Cc2cccs2)c2nc3ccccc3nc12		inconclusive [inhibitor, partial curve]
C=CCSC1=N/C(=C\c2cc(OC)c3c(c2)OCO3)C(=O)S1		inconclusive [inhibitor, partial curve]
C[C@@H](O)CN(CCN(C[C@@H](C)O)C[C@@H](C)O)C[C@@H](C)O.O=[N+]([O-])O.[Cu]		active: 3.98 µM
C=CCN1CCc2cccc3c2[C@@H]1Cc1ccc(O)c(O)c1-3		inconclusive [inhibitor, full curve, poor fit]
C[C@@H]1[C@H]2C=C[C@@H]1[C@@H](c1c3ccc(=O)c(O)c-3oc3c(O)c(O)ccc13)[C@@H]2C(=O)O		inconclusive [inhibitor, partial curve]
O=C1NCN(c2ccccc2)C12CCN(C[C@H]1COc3ccccc3O1)CC2	inactive: 1.69%	
COC(=O)C(O)(c1ccc(N(C)S(=O)(=O)c2ccccc2)cc1)C(F)(F)F (stereo not drawn)	inactive: -21%	
CCCCC/C=C\C/C=C\C/C=C\C/C=C\CCCC(=O)NCC(=O)O		active: 2.51 µM
Oc1ccc(Cl)cc1Cc1cc(Cl)ccc1O		active: 12.6 µM
C[C@@]12CC[C@@H]3c4ccc(O)cc4C[C@H](CCCCCCCCCS(=O)CCCC(F)(F)C(F)(F)F)[C@H]3[C@@H]1CC[C@@H]2O (stereo partly drawn)		inconclusive [inhibitor, single point]
CC(C)(C)[C@]1(O)C[C@@H]2OC(=O)C[C@@]23C(=O)O[C@@H]2OC(=O)[C@H](O)[C@]213		inconclusive [inhibitor, partial curve, poor fit]
O=C1C(Cl)=C(Cl)C(=O)C(Cl)=C1Cl		active: 0.158 µM
O=c1cc(-c2ccc(O)c(O)c2)oc2cc(O)cc(O)c12		active: 1.58 µM and active: 2.51 µM
